The source gives many values for each of these; only a part stands here.
Key:
[1] = Multiple-dose PK of intravenous Compound A in patients with NT1 (Cohorts B1, B2), plasma; format: in vivo, human
Description: The purpose of the study was to evaluate the safety, tolerability, pharmacokinetics and pharmacodynamics of Compound A after multiple IV administration in patients with NT1. NT1 patients were evaluated in Cohort B1 and B2 (Table 19). Compound A or placebo were administered via IV infusion over 9 hours once daily for 7 days. A total of 13 patients with NT1 were treated with Compound A or placebo (4, 4, and 5 subjects in the placebo, Compound A 11 mg, and Compound A 44 mg groups, respectively). In this part, potential efficacy of Compound A was evaluated with MWT, ESS, KSS, night-time PSG (NPSG), cataplexy frequency assessment, and PGI-C as an exploratory PD assessment.
Blood samples used for PK analysis of Compound A was collected according to Table 20. See also FIG. 12 for whole schedules of study procedures.

[2] = Single dose PK in patients with narcolepsy (Cohorts 5, 6 and 7), plasma; format: in vivo, human
Description: This study investigates (i) the safety and tolerability of Compound A (methyl (2R,3S)-3-((methylsulfonyl)amino)-2-(((cis-4-phenylcyclohexyl)oxy)methyl)piperidine-1-carboxylate) when a single dose given as a 9 hour continuous IV infusion is administered to healthy adults, healthy elderly subjects and patients with narcolepsy type 1 (NT1); (ii) the pharmacokinetics of Compound A when a single dose given as a 9 hour continuous IV infusion is administered to healthy adults, healthy elderly subjects and patients with narcolepsy type 1; and (iii) the pharmacodynamics (PD) effects of Compound A, primarily by evaluation of the sleep latency on MWT when a single dose given as a 9 hour continuous IV infusion is administered to patients with narcolepsy type 1.
In Part 2, NT1 patients received a single dose of Compound A or placebo administered as a continuous IV infusion over a 9-hour period during the day. A 40-minute Maintenance of Wakefulness Test (MWT) was conducted 4 times during the continuous IV infusion to assess effects on wakefulness in soporific conditions at 2, 4, 6 and 8 hours from start of infusion. Three cohorts of patients were enrolled (n=14 total).
Pharmacokinetics: Concentrations of Compound A in plasma, and CSF, and pharmacokinetics parameters.
On average, the time to reach the plateau appeared to be approximately 4 hours after the start of infusion. […] After switching off the IV infusion, Compound A plasma concentrations declined rapidly and in a biphasic manner with a mean terminal disposition phase t1/2z ranging approximately from 3.5 to 4.1 hours across the doses.

[3] = 5 mg, 0.17 hr After End of Infusion, NT1
[4] = 5 mg, 0.5 hr After End of Infusion, NT1
[5] = 5 mg, 2 hr After End of Infusion, NT1
[6] = 5 mg, Predose, NT1, single 9 h IV infusion
[7] = 11.2 mg, 0.17 hr After End of Infusion, NT1
[8] = 11.2 mg, 0.5 hr After End of Infusion, NT1
[9] = 11.2 mg, 2 hr After End of Infusion, NT1
[10] = 11.2 mg, Predose, NT1, single 9 h IV infusion
[11] = 44.8 mg, 0.17 hr After End of Infusion, NT1
[12] = 44.8 mg, 0.5 hr After End of Infusion, NT1
[13] = 44.8 mg, 2 hr After End of Infusion, NT1
[14] = 44.8 mg, Predose, NT1, single 9 h IV infusion

Compound: COC(=O)N1CCC[C@H](NS(C)(=O)=O)[C@@H]1CO[C@H]1CC[C@@H](c2ccccc2)CC1 [Compound A, methyl (2R,3S)-3-((methylsulfonyl)amino)-2-(((cis-4-phenylcyclohexyl)oxy)methyl)piperidine-1-carboxylate]
- Ceoi, Geo Mean ([1]; 11 mg, Day 1): 17.39 ng/mL
- Ceoi, Geo Mean ([1]; 11 mg, Day 7): 17.68 ng/mL
- Ceoi, Mean ([1]; 11 mg, Day 7): 17.75 ng/mL
- Ceoi, Mean ([1]; 44 mg, Day 1): 72.04 ng/mL
- Ceoi, Geo Mean ([1]; 44 mg, Day 7): 73.20 ng/mL
- Ceoi, Mean ([1]; 44 mg, Day 7): 74.44 ng/mL
- Plasma concentration, Mean [2, 3]: 5.888 ng/mL
- Plasma concentration, Median [2, 3]: 5.520 ng/mL
- Plasma concentration, Mean [2, 4]: 4.424 ng/mL
- Plasma concentration, Median [2, 4]: 3.990 ng/mL
- Plasma concentration, Mean [2, 5]: 2.358 ng/mL
- Plasma concentration, Median [2, 5]: 2.260 ng/mL
- Plasma concentration, Mean ([2]; 5 mg, At Bed Time, NT1): 1.071 ng/mL
- Plasma concentration, Median ([2]; 5 mg, At Bed Time, NT1): 0.8550 ng/mL
- Plasma concentration, Mean [2, 6]: 0.000 ng/mL
- Plasma concentration, Median [2, 6]: 0.000 ng/mL
- Plasma concentration, Mean [2, 7]: 12.38 ng/mL
- Plasma concentration, Median [2, 7]: 11.80 ng/mL
- Plasma concentration, Mean [2, 8]: 9.545 ng/mL
- Plasma concentration, Median [2, 8]: 9.210 ng/mL
- Plasma concentration, Mean [2, 9]: 4.838 ng/mL
- Plasma concentration, Median [2, 9]: 5.070 ng/mL
- Plasma concentration, Mean ([2]; 11.2 mg, At Bed Time, NT1): 1.923 ng/mL
- Plasma concentration, Median ([2]; 11.2 mg, At Bed Time, NT1): 1.890 ng/mL
- Plasma concentration, Mean [2, 10]: 0.000 ng/mL
- Plasma concentration, Median [2, 10]: 0.000 ng/mL
- Plasma concentration, Mean [2, 11]: 68.70 ng/mL
- Plasma concentration, Median [2, 11]: 64.15 ng/mL
- Plasma concentration, Mean [2, 12]: 53.93 ng/mL
- Plasma concentration, Median [2, 12]: 52.50 ng/mL
- Plasma concentration, Mean [2, 13]: 25.85 ng/mL
- Plasma concentration, Median [2, 13]: 26.85 ng/mL
- Plasma concentration, Mean ([2]; 44.8 mg, At Bed Time, NT1): 11.37 ng/mL
- Plasma concentration, Median ([2]; 44.8 mg, At Bed Time, NT1): 10.36 ng/mL
- Plasma concentration, Mean [2, 14]: 0.000 ng/mL
- Plasma concentration, Median [2, 14]: 0.000 ng/mL

From patent US20220339143A1, “TAK-925 FOR USE IN TREATING NARCOLEPSY” (Takeda Pharmaceutical Company Limited, priority 2019, published 2022)
